From patent US20180179267A1 (published 2018)

Key:
LukGH_H19 = target: T1, LukGH_H19; assay: ForteBio
T1 chain 1: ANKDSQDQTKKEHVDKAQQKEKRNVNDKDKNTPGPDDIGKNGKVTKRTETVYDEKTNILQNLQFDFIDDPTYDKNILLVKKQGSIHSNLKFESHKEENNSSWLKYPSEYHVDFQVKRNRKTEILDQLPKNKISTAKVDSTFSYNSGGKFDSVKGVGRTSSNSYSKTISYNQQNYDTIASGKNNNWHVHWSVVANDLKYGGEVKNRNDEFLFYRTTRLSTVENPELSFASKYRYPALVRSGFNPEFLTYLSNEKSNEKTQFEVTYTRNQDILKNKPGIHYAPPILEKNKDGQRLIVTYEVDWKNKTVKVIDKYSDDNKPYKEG
T1 chain 2: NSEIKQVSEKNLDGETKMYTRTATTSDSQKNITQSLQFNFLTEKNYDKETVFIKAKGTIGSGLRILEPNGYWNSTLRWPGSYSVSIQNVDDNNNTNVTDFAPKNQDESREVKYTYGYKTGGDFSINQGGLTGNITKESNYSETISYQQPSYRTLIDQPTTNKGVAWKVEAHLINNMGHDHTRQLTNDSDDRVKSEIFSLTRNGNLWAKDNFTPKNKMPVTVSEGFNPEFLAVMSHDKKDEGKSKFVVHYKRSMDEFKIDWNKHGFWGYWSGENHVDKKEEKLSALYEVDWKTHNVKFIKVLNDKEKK

LukGH_MSHR1132 = target: T2, LukGH_MSHR1132; assay: ForteBio
T2 chain 1: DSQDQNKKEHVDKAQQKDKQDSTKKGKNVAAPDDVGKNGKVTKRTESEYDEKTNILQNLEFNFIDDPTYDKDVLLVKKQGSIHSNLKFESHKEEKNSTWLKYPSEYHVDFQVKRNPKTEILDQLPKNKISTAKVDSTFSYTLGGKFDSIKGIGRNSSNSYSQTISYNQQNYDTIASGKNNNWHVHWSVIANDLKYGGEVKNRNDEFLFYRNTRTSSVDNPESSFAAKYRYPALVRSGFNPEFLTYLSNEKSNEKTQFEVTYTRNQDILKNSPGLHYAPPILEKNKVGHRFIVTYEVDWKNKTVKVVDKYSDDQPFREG
T2 chain 2: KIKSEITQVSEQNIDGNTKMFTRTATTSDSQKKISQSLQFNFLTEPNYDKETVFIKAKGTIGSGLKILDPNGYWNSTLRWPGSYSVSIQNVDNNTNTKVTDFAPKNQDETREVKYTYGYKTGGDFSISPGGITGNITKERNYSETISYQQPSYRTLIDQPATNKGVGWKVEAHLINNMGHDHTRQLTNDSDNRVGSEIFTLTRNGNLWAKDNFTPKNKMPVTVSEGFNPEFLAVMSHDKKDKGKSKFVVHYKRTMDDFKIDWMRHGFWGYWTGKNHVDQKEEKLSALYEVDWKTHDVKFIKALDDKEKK

LukG_TCH1516 [1] = target: T3, LukG_TCH1516; assay: ForteBio
T3 chain: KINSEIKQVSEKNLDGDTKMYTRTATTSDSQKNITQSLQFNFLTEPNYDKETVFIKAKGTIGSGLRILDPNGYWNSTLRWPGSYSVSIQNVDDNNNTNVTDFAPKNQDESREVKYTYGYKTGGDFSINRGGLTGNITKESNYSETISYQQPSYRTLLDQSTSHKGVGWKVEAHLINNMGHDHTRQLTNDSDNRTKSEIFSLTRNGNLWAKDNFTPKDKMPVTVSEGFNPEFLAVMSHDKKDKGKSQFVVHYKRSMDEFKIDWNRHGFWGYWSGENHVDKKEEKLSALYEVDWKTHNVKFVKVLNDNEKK

LukGH_MRSA252 = target: T4, LukGH_MRSA252; assay: ForteBio
T4 chain 1: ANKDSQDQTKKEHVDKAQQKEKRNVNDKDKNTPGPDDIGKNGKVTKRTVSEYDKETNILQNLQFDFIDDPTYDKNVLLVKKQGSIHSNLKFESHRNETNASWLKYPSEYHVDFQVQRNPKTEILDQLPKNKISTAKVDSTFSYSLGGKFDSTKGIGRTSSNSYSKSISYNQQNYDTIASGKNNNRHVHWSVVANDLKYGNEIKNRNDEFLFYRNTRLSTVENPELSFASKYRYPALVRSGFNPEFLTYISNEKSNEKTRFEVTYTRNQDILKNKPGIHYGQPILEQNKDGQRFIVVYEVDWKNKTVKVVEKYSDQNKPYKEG
T4 chain 2: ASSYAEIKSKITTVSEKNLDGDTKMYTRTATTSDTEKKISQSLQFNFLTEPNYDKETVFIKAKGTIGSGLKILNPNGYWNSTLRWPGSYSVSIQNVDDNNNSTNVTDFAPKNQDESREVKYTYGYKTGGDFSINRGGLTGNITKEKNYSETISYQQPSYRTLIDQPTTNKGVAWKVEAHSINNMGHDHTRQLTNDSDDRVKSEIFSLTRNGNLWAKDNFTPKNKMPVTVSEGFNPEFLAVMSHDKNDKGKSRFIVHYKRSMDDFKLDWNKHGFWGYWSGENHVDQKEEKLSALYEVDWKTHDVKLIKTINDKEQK

[2] = target: T5, LukGH of S. aureus USA300 TCH1516 (UniProt Q2FFA2 28-351; P21224 30-338); assay: ForteBio
T5 chain 1: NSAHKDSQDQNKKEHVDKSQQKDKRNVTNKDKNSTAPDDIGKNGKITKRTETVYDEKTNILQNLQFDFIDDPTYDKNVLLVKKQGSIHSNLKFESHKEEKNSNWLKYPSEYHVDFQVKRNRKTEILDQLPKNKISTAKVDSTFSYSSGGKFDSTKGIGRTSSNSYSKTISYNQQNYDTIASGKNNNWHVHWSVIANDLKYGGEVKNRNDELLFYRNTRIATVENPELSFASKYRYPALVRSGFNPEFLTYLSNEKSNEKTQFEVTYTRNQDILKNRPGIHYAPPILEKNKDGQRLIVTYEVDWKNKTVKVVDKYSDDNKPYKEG
T5 chain 2: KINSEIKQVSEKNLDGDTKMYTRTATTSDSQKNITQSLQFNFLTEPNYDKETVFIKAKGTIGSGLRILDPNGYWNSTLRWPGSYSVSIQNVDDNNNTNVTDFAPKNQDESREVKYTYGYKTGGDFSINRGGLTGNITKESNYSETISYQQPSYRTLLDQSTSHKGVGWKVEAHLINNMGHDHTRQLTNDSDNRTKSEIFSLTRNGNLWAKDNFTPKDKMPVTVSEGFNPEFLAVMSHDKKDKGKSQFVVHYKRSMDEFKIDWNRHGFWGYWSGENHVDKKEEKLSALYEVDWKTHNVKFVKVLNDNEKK

[3] = target: T5, LukGH of S. aureus USA300 TCH1516; assay: MSD; Fab
LukG_TCH1516 [4] = target: T3, LukG_TCH1516; assay: MSD; Fab

B1: AB-34-6 (antibody)
chain 1: QVQLVQSGAEVKKPGSSVKVSCKASGGTIWSEAISWVRQAPGQGLEWMGGIIPIFGDAVYAQKFQGRVTITADESTSTAYMELSSLRSEDTAVYYCARAREGDDPYGMDVWGQGTTVTVSS[human IgG1 constant region omitted here]
chain 2: [about 100 residues omitted here][about 120 residues omitted here]
LukGH_H19
  Kd: 0.24 nM
LukGH_MSHR1132
  Kd: 0.62 nM
LukG_TCH1516 [1]
  Kd: 12 nM
LukGH_MRSA252
  Kd: 0.2 nM
[2]
  Kd: 0.18 nM
[3]
  Kd: 0.0012 nM

B2: AB-34-15 (antibody)
chain 1: EVQLVQSGAEVKKPGSSVKVSCKASGGTIWSEAISWVRQAPGQGLEWMGGIIPIFGDAVYAQKFQGRVTITADESTSTAYMELSSLRSEDTAVYYCARAREGDDPYGMDVWGQGTTVTVSS[human IgG1 constant region omitted here]
chain 2: [about 100 residues omitted here][about 120 residues omitted here]
LukGH_H19
  Kd: 0.27 nM
LukGH_MSHR1132
  Kd: 0.78 nM
LukG_TCH1516 [1]
  Kd: 12 nM
LukGH_MRSA252
  Kd: 0.24 nM
[2]
  Kd: 0.2 nM

B3: AB-34-14 (antibody)
chain 1: EVQLVQSGAEVKKPGSSVKVSCKASGGTFSSWAISWVRQAPGQGLEWMGGIIPIFGEAAYAQKFQGRVTITADESTSTAYMELSSLRSEDTAVYYCARAREGDDPYGMDVWGQGTTVTVSS[human IgG1 constant region omitted here]
chain 2: [about 100 residues omitted here][about 120 residues omitted here]
LukGH_H19
  Kd: 0.24 nM
LukGH_MSHR1132
  Kd: 0.38 nM
LukG_TCH1516 [1]
  Kd: 6.8 nM
LukGH_MRSA252
  Kd: 0.22 nM
[2]
  Kd: 0.094 nM

B4: AB-34 (antibody)
chain 1: QVQLVQSGAEVKKPGSSVKVSCKASGGTFSSWAISWVRQAPGQGLEWMGGIIPIFGEAAYAQKFQGRVTITADESTSTAYMELSSLRSEDTAVYYCARAREGDDPYGMDVWGQGTTVTVSS[human IgG1 constant region omitted here]
chain 2: [about 100 residues omitted here][about 120 residues omitted here]
LukGH_H19
  Kd: 0.22 nM
LukGH_MSHR1132
  Kd: 0.36 nM
LukG_TCH1516 [1]
  Kd: 6.9 nM
LukGH_MRSA252
  Kd: 0.21 nM
[2]
  Kd: 0.095 nM
LukG_TCH1516 [4]
  Kd: 0.11 nM
[3]
  Kd: < 0.0005 nM

B5: AB-32-6 (antibody)
chain 1: QLQLQESGPGLVKPSETLSLTCTVSGGSISSGSYYWDWIRQPPGKGLEWIGNIYKSGSTYYNPSLKSRVTISVDTSKNQFSLKLSSVTAADTAVYYCARERGMHYMDVWGKGTTVTVSS[human IgG1 constant region omitted here]
chain 2: DIQMTQSPSSLSASVGDRVTITCRASQSINSYLNWYQQKPGKAPKLLIYAASSLQSGVPSRFSGSGSGTDFTLTISSLQPEDFATYYCQQQFDPPFTFGGGTKVEIKRTVAAPSVFIFPPSDEQLKSGTASVVCLLNNFYPREAKVQWKVDNALQSGNSQESVTEQDSKDSTYSLSSTLTLSKADYEKHKVYACEVTHQGLSSPVTKSFNRGEC
LukGH_H19
  Kd: 0.23 nM
LukGH_MSHR1132
  Kd: 0.23 nM
LukG_TCH1516 [1]
  Kd: 31 nM
LukGH_MRSA252
  Kd: 0.26 nM
[2]
  Kd: < 0.12 nM
LukG_TCH1516 [4]
  Kd: 0.26 nM
[3]
  Kd: 0.0028 nM

B6: AB-32-9 (antibody)
chain 1: ELQLQESGPGLVKPSETLSLTCTVSGGSISSGSYYWDWIRQPPGKGLEWIGNIYKSGSTYYNPSLKSRVTISVDTSKNQFSLKLSSVTAADTAVYYCARERGMHYMDVWGKGTTVTVSS[human IgG1 constant region omitted here]
chain 2: DIQMTQSPSSLSASVGDRVTITCRASQSINSYLNWYQQKPGKAPKLLIYAASSLQSGVPSRFSGSGSGTDFTLTISSLQPEDFATYYCQQQFDPPFTFGGGTKVEIKRTVAAPSVFIFPPSDEQLKSGTASVVCLLNNFYPREAKVQWKVDNALQSGNSQESVTEQDSKDSTYSLSSTLTLSKADYEKHKVYACEVTHQGLSSPVTKSFNRGEC
LukGH_H19
  Kd: 0.27 nM
LukGH_MSHR1132
  Kd: 0.28 nM
LukG_TCH1516 [1]
  Kd: 29 nM
LukGH_MRSA252
  Kd: 0.31 nM
[2]
  Kd: < 0.12 nM
